Results from the supplement of paper PMC7826260.
Some of the results follow. Cleavage of a single-stranded DNA pool by Rep nickase domains was read by sequencing (1 h at 37 °C, 3 µM enzyme); the outer parts of the 90-letter strands are left off. Values are log2 of uncut reads against the no-enzyme pool; strong cutting gives strongly negative numbers. There is no active / inactive call. Shares of all reads are compared; values above 0 arise when much of the pool is cut.

Key:
Experiment in all cases: uncleaved DNA left, log2 of reads against the no-enzyme library (log2 ratio); higher = less cleavage (more negative = more Rep cleavage of the k-mer); sequences stand for … in CTCGTCCG…ACCGGAGA
[1] = test system: T1, Rep nickase domain of Muscovy duck circovirus
T1 sequence (residues 1-111, tag not shown): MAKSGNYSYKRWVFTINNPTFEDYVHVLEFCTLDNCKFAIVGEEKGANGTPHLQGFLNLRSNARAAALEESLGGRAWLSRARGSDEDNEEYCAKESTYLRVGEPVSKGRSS
Method: (§1)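 A pool of 90-nt single-stranded DNAs with seven random bases just before the constant AC of the nick site (name = the seven bases) was cut by 3 µM recombinant His6-SUMO-tagged Rep nickase domain (300 nM DNA, 50 mM HEPES pH 8.0, 50 mM NaCl, 1 mM MnCl2, 1 h, 37 °C, three replicates). Uncut DNA was amplified and sequenced.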

[2] = test system: T2, Rep nickase domain of banana bunchy top virus
T2 sequence (residues 1-94, tag not shown): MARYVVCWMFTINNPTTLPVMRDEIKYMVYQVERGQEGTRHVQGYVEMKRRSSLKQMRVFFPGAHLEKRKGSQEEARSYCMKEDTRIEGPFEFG
Method: as §1

[3] = test system: T3, Rep nickase domain of cabbage leaf curl virus
T3 sequence (residues 1-116, tag not shown): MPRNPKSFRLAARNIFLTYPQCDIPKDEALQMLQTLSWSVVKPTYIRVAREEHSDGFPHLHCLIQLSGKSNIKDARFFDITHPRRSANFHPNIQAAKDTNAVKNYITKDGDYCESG
Method: as §1

[4] = test system: T4, Rep nickase domain of chickpea chlorotic dwarf virus
T4 sequence (residues 1-124, tag not shown): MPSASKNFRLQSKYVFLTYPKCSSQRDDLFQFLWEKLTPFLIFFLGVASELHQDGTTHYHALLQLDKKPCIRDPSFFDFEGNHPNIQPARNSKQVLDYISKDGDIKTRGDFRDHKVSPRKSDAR
Method: as §1

[5] = test system: T5, Rep nickase domain of faba bean necrotic yellows virus
T5 sequence (residues 1-98, tag not shown): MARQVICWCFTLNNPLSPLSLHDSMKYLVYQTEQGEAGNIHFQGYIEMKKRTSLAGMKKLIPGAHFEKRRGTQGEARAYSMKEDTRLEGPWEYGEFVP
Method: as §1

[6] = test system: T6, Rep nickase domain of maize striate mosaic virus
T6 sequence (residues 1-117, tag not shown): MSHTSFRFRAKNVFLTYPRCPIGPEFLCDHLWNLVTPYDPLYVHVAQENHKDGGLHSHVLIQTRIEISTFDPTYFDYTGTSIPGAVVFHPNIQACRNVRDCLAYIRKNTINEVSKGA
Method: as §1

[7] = test system: T7, Rep nickase domain of porcine circovirus 2
T7 sequence (residues 2-116, tag not shown): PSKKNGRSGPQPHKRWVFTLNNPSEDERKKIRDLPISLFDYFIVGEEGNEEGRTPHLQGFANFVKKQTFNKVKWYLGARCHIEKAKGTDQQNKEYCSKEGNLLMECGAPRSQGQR
Method: as §1

[8] = test system: T8, Rep nickase domain of tomato golden mosaic virus
T8 sequence (residues 1-124, tag not shown): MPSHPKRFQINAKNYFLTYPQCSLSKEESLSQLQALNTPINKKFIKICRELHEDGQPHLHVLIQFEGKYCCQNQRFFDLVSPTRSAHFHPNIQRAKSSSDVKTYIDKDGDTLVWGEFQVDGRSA
Method: as §1

[9] = test system: T9, Rep nickase domain of tomato yellow leaf curl virus
T9 sequence (residues 1-136, tag not shown): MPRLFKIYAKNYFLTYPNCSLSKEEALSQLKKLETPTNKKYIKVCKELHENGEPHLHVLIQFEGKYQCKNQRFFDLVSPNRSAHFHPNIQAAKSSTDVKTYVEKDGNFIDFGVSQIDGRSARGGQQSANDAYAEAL
Method: as §1

[10] = test system: T10, Rep nickase domain of wheat dwarf virus
T10 sequence (residues 1-137, tag not shown): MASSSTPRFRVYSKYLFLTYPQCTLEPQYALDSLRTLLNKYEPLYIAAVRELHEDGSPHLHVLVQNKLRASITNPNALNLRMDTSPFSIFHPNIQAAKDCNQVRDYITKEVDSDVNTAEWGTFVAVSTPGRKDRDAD
Method: as §1

## TTATATC
[1]
  uncleaved DNA left (log2): -0.00732
[2]
  uncleaved DNA left (log2): 0.038
[3]
  uncleaved DNA left (log2): -0.134
[4]
  uncleaved DNA left (log2): -0.434
[5]
  uncleaved DNA left (log2): 0.0239
[6]
  uncleaved DNA left (log2): -0.339
[7]
  uncleaved DNA left (log2): 0.011
[8]
  uncleaved DNA left (log2): 0.036
[9]
  uncleaved DNA left (log2): 0.171
[10]
  uncleaved DNA left (log2): 0.111

## TGTAGCT
[1]
  uncleaved DNA left (log2): 0.00412
[2]
  uncleaved DNA left (log2): 0.0629
[3]
  uncleaved DNA left (log2): -0.124
[4]
  uncleaved DNA left (log2): -0.839
[5]
  uncleaved DNA left (log2): 0.0111
[6]
  uncleaved DNA left (log2): -0.681
[7]
  uncleaved DNA left (log2): -0.119
[8]
  uncleaved DNA left (log2): -0.0181
[9]
  uncleaved DNA left (log2): 0.0145
[10]
  uncleaved DNA left (log2): -0.0962

## CATTCGG
[1]
  uncleaved DNA left (log2): -0.00628
[2]
  uncleaved DNA left (log2): -0.0672
[3]
  uncleaved DNA left (log2): 0.145
[4]
  uncleaved DNA left (log2): 0.585
[5]
  uncleaved DNA left (log2): -0.0148
[6]
  uncleaved DNA left (log2): 0.0944
[7]
  uncleaved DNA left (log2): 0.203
[8]
  uncleaved DNA left (log2): -0.037
[9]
  uncleaved DNA left (log2): -0.0515
[10]
  uncleaved DNA left (log2): -0.0388

## CATGGCG
[1]
  uncleaved DNA left (log2): 0.111
[2]
  uncleaved DNA left (log2): -0.0153
[3]
  uncleaved DNA left (log2): -0.296
[4]
  uncleaved DNA left (log2): 1.06
[5]
  uncleaved DNA left (log2): -0.0321
[6]
  uncleaved DNA left (log2): 0.565
[7]
  uncleaved DNA left (log2): 0.123
[8]
  uncleaved DNA left (log2): -0.00312
[9]
  uncleaved DNA left (log2): 0.0833
[10]
  uncleaved DNA left (log2): -0.129

## CCTCCGT
[1]
  uncleaved DNA left (log2): 0.133
[2]
  uncleaved DNA left (log2): 0.0409
[3]
  uncleaved DNA left (log2): -0.0553
[4]
  uncleaved DNA left (log2): -0.614
[5]
  uncleaved DNA left (log2): -0.0022
[6]
  uncleaved DNA left (log2): -0.657
[7]
  uncleaved DNA left (log2): -0.0257
[8]
  uncleaved DNA left (log2): -0.129
[9]
  uncleaved DNA left (log2): -0.161
[10]
  uncleaved DNA left (log2): -0.0317

## ATAAATG
[1]
  uncleaved DNA left (log2): 0.0686
[2]
  uncleaved DNA left (log2): 0.0371
[3]
  uncleaved DNA left (log2): -0.553
[4]
  uncleaved DNA left (log2): -0.537
[5]
  uncleaved DNA left (log2): -0.062
[6]
  uncleaved DNA left (log2): -1.04
[7]
  uncleaved DNA left (log2): 0.17
[8]
  uncleaved DNA left (log2): 0.0341
[9]
  uncleaved DNA left (log2): 0.0144
[10]
  uncleaved DNA left (log2): 0.0108

## CCAGTGA
[1]
  uncleaved DNA left (log2): 0.0734
[2]
  uncleaved DNA left (log2): 0.0407
[3]
  uncleaved DNA left (log2): -0.384
[4]
  uncleaved DNA left (log2): -0.494
[5]
  uncleaved DNA left (log2): 0.0222
[6]
  uncleaved DNA left (log2): -0.935
[7]
  uncleaved DNA left (log2): 0.0753
[8]
  uncleaved DNA left (log2): -0.00656
[9]
  uncleaved DNA left (log2): 0.112
[10]
  uncleaved DNA left (log2): -0.00373

## ACCACAA
[1]
  uncleaved DNA left (log2): 0.0817
[2]
  uncleaved DNA left (log2): 0.089
[3]
  uncleaved DNA left (log2): -0.156
[4]
  uncleaved DNA left (log2): -0.307
[5]
  uncleaved DNA left (log2): 0.0313
[6]
  uncleaved DNA left (log2): -0.949
[7]
  uncleaved DNA left (log2): 0.0449
[8]
  uncleaved DNA left (log2): -0.0294
[9]
  uncleaved DNA left (log2): -0.0383
[10]
  uncleaved DNA left (log2): -0.0501

## TACTATT
[1]
  uncleaved DNA left (log2): -3.71
[2]
  uncleaved DNA left (log2): -4.45
[3]
  uncleaved DNA left (log2): -3.61
[4]
  uncleaved DNA left (log2): -3.67
[5]
  uncleaved DNA left (log2): -3.54
[6]
  uncleaved DNA left (log2): -2.99
[7]
  uncleaved DNA left (log2): -4.54
[8]
  uncleaved DNA left (log2): -3.65
[9]
  uncleaved DNA left (log2): -0.322
[10]
  uncleaved DNA left (log2): -3.51

## TCAGGAC
[1]
  uncleaved DNA left (log2): 0.0869
[2]
  uncleaved DNA left (log2): 0.0923
[3]
  uncleaved DNA left (log2): 0.422
[4]
  uncleaved DNA left (log2): 1.34
[5]
  uncleaved DNA left (log2): 0.138
[6]
  uncleaved DNA left (log2): 1.29
[7]
  uncleaved DNA left (log2): 0.299
[8]
  uncleaved DNA left (log2): 0.251
[9]
  uncleaved DNA left (log2): 0.181
[10]
  uncleaved DNA left (log2): 0.134

## CTAAAGC
[1]
  uncleaved DNA left (log2): 0.0587
[2]
  uncleaved DNA left (log2): 0.109
[3]
  uncleaved DNA left (log2): -0.083
[4]
  uncleaved DNA left (log2): -0.255
[5]
  uncleaved DNA left (log2): 0.138
[6]
  uncleaved DNA left (log2): -1.04
[7]
  uncleaved DNA left (log2): 0.362
[8]
  uncleaved DNA left (log2): 0.102
[9]
  uncleaved DNA left (log2): 0.106
[10]
  uncleaved DNA left (log2): 0.0663

## GGAAATT
[1]
  uncleaved DNA left (log2): 0.0489
[2]
  uncleaved DNA left (log2): -0.00493
[3]
  uncleaved DNA left (log2): 0.749
[4]
  uncleaved DNA left (log2): 1.83
[5]
  uncleaved DNA left (log2): -0.000511
[6]
  uncleaved DNA left (log2): 2.11
[7]
  uncleaved DNA left (log2): 0.102
[8]
  uncleaved DNA left (log2): -0.118
[9]
  uncleaved DNA left (log2): 0.0161
[10]
  uncleaved DNA left (log2): 0.0591

## CGTGATA
[1]
  uncleaved DNA left (log2): -0.0577
[2]
  uncleaved DNA left (log2): -0.0565
[3]
  uncleaved DNA left (log2): 0.105
[4]
  uncleaved DNA left (log2): 0.16
[5]
  uncleaved DNA left (log2): -0.00661
[6]
  uncleaved DNA left (log2): 0.876
[7]
  uncleaved DNA left (log2): -0.14
[8]
  uncleaved DNA left (log2): 0.0187
[9]
  uncleaved DNA left (log2): 0.0118
[10]
  uncleaved DNA left (log2): -0.0354

## AGACCAT
[1]
  uncleaved DNA left (log2): 0.226
[2]
  uncleaved DNA left (log2): 0.282
[3]
  uncleaved DNA left (log2): 0.774
[4]
  uncleaved DNA left (log2): 1.21
[5]
  uncleaved DNA left (log2): 0.152
[6]
  uncleaved DNA left (log2): 2.02
[7]
  uncleaved DNA left (log2): 0.232
[8]
  uncleaved DNA left (log2): 0.124
[9]
  uncleaved DNA left (log2): 0.285
[10]
  uncleaved DNA left (log2): 0.285

## TTCCGAT
[1]
  uncleaved DNA left (log2): 0.108
[2]
  uncleaved DNA left (log2): 0.00195
[3]
  uncleaved DNA left (log2): 0.557
[4]
  uncleaved DNA left (log2): 0.695
[5]
  uncleaved DNA left (log2): -0.0222
[6]
  uncleaved DNA left (log2): 1.38
[7]
  uncleaved DNA left (log2): 0.0937
[8]
  uncleaved DNA left (log2): -0.14
[9]
  uncleaved DNA left (log2): 0.0281
[10]
  uncleaved DNA left (log2): 0.053
